According to the supplement of paper PMC4967469:
Lines with a small IC50 respond at low doses; a limit (>, <) means that the fit lies beyond the doses tested. For AUC the same curve is integrated over the 256-fold range of doses and scaled to a fraction: 1 means no effect, lower means more sensitive. Any top dose called inferred was calculated from the reported fits. For some assays here: Drugs with an entry number were screened twice under separate entries, and the two screens often disagree.

What follows are cell lines tested with Cc1ccc(-n2nc(C(C)(C)C)cc2NC(=O)Nc2ccc(OCCN3CCOCC3)c3ccccc23)cc1 [BIRB 0796] (assay: Viability of human cancer cell lines after 72 h of drug (GDSC screen)). Conditions: top dose 10 µM; top dose inferred.
Experimental: (§1)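 Human cancer cell lines in 384-well plates, medium with 10% serum, drug for 72 h over a 256-fold dose range (nine 2-fold or five 4-fold steps up to the top dose). Adherent lines were fixed and stained with the nucleic acid dye Syto60, suspension lines read with resazurin; signal relative to control wells, capped at 0 and 100%. One two-parameter sigmoid per drug and line, fitted in a mixed model over all curves with the slope shared within a line.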

Cell Line	AUC	IC50 [µM]
CPC-N (small cell lung carcinoma, suspension)	0.984	> 10
CTB-1 (B-cell lymphoma, suspension)	0.979	> 10
CTV-1 (acute myeloid leukaemia, suspension)	0.992	> 10
D-283MED (medulloblastoma, adherent)	0.986	> 10
D-502MG (glioma, adherent)	0.926	> 10
DB (B-cell lymphoma, suspension)	0.845	8.65
DEL (lymphoid neoplasm, suspension)	0.993	> 10
DJM-1 (skin, adherent)	0.983	> 10
DMS-79 (small cell lung carcinoma, suspension)	0.987	> 10
DSH1 (bladder, adherent)	0.989	> 10
DU-4475 (breast, suspension)	0.987	> 10
EB2 (Burkitt lymphoma, suspension)	0.99	> 10
EB-3 (Burkitt lymphoma, suspension)	0.984	> 10
EJM (lymphoid neoplasm, semi-adherent)	0.991	> 10
EM-2 (chronic myeloid leukaemia, suspension)	0.98	> 10
EW-3 (Ewing sarcoma, adherent)	0.977	> 10
EW-13 (Ewing sarcoma, suspension)	0.977	> 10
EW-18 (Ewing sarcoma, suspension)	0.986	> 10
GCIY (stomach, adherent)	0.984	> 10
GDM-1 (acute myeloid leukaemia, suspension)	0.984	> 10
HAL-01 (lymphoblastic leukaemia, suspension)	0.961	> 10
HC-1 (hairy cell leukaemia, suspension)	0.975	> 10

What follows are cell lines tested with Cc1cccc(-c2[nH]c(C(C)(C)C)nc2-c2ccc3nccnc3c2)n1 [SB-525334] in the same assay as above. Conditions: top dose 20 µM; top dose inferred.
Experimental: as §1

Cell Line	AUC	IC50 [µM]
CPC-N (small cell lung carcinoma, suspension)	0.935	> 20
CTB-1 (B-cell lymphoma, suspension)	0.741	8.07
CTV-1 (acute myeloid leukaemia, suspension)	0.844	10.4
D-283MED (medulloblastoma, adherent)	0.991	> 20
D-502MG (glioma, adherent)	0.95	> 20
DB (B-cell lymphoma, suspension)	0.907	> 20
DEL (lymphoid neoplasm, suspension)	0.984	> 20
DJM-1 (skin, adherent)	0.973	> 20
DMS-79 (small cell lung carcinoma, suspension)	0.919	> 20
DSH1 (bladder, adherent)	0.984	> 20
DU-4475 (breast, suspension)	0.964	> 20
EB2 (Burkitt lymphoma, suspension)	0.968	> 20
EB-3 (Burkitt lymphoma, suspension)	0.931	> 20
EJM (lymphoid neoplasm, semi-adherent)	0.923	> 20
EM-2 (chronic myeloid leukaemia, suspension)	0.957	> 20
EW-3 (Ewing sarcoma, adherent)	0.805	11.8
EW-13 (Ewing sarcoma, suspension)	0.904	> 20
EW-18 (Ewing sarcoma, suspension)	0.648	3.31
GCIY (stomach, adherent)	0.954	> 20
GDM-1 (acute myeloid leukaemia, suspension)	0.931	> 20
HAL-01 (lymphoblastic leukaemia, suspension)	0.979	> 20
HC-1 (hairy cell leukaemia, suspension)	0.877	18.8

The cell lines below were run with NC(=O)c1ccc(N(C(N)=O)c2c(F)cccc2F)nc1-c1ccc(F)cc1F [VX-702] in the same assay as above. Conditions: top dose 2 µM; top dose inferred.
Experimental: as §1

Cell Line	AUC	IC50 [µM]
CPC-N (small cell lung carcinoma, suspension)	0.946	> 2
CTB-1 (B-cell lymphoma, suspension)	0.95	> 2
CTV-1 (acute myeloid leukaemia, suspension)	0.965	> 2
D-283MED (medulloblastoma, adherent)	0.967	> 2
D-502MG (glioma, adherent)	0.973	> 2
DB (B-cell lymphoma, suspension)	0.847	1.77
DEL (lymphoid neoplasm, suspension)	0.994	> 2
DJM-1 (skin, adherent)	0.978	> 2
DMS-79 (small cell lung carcinoma, suspension)	0.987	> 2
DSH1 (bladder, adherent)	0.984	> 2
DU-4475 (breast, suspension)	0.992	> 2
EB2 (Burkitt lymphoma, suspension)	0.99	> 2
EB-3 (Burkitt lymphoma, suspension)	0.984	> 2
EJM (lymphoid neoplasm, semi-adherent)	0.991	> 2
EM-2 (chronic myeloid leukaemia, suspension)	0.973	> 2
EW-3 (Ewing sarcoma, adherent)	0.972	> 2
EW-13 (Ewing sarcoma, suspension)	0.919	> 2
EW-18 (Ewing sarcoma, suspension)	0.921	> 2
GCIY (stomach, adherent)	0.981	> 2
GDM-1 (acute myeloid leukaemia, suspension)	0.987	> 2
HAL-01 (lymphoblastic leukaemia, suspension)	0.884	1.73
HC-1 (hairy cell leukaemia, suspension)	0.987	> 2

The cell lines below were run with O=C(c1cc(Cc2n[nH]c(=O)c3ccccc23)ccc1F)N1CCN(C(=O)C2CC2)CC1 [Olaparib] in the same assay as above. Conditions: top dose 5 µM; screen: GDSC drug entry 1017; top dose inferred.
Experimental: as §1

Cell Line	AUC	IC50 [µM]
CPC-N (small cell lung carcinoma, suspension)	0.985	> 5
CTB-1 (B-cell lymphoma, suspension)	0.962	> 5
CTV-1 (acute myeloid leukaemia, suspension)	0.958	> 5
D-283MED (medulloblastoma, adherent)	0.936	> 5
D-502MG (glioma, adherent)	0.977	> 5
DB (B-cell lymphoma, suspension)	0.897	> 5
DEL (lymphoid neoplasm, suspension)	0.992	> 5
DJM-1 (skin, adherent)	0.954	> 5
DMS-79 (small cell lung carcinoma, suspension)	0.969	> 5
DSH1 (bladder, adherent)	0.984	> 5
DU-4475 (breast, suspension)	0.984	> 5
EB2 (Burkitt lymphoma, suspension)	0.99	> 5
EB-3 (Burkitt lymphoma, suspension)	0.984	> 5
EJM (lymphoid neoplasm, semi-adherent)	0.992	> 5
EM-2 (chronic myeloid leukaemia, suspension)	0.978	> 5
EW-3 (Ewing sarcoma, adherent)	0.916	> 5
EW-13 (Ewing sarcoma, suspension)	0.949	> 5
EW-18 (Ewing sarcoma, suspension)	0.949	> 5
GCIY (stomach, adherent)	0.984	> 5
GDM-1 (acute myeloid leukaemia, suspension)	0.987	> 5
HAL-01 (lymphoblastic leukaemia, suspension)	0.938	> 5
HC-1 (hairy cell leukaemia, suspension)	0.987	> 5

Same assay, conditions: top dose 10 µM; screen: GDSC drug entry 1495

Cell Line	AUC	IC50 [µM]
CPC-N (small cell lung carcinoma, suspension)	0.965	> 10
CTB-1 (B-cell lymphoma, suspension)	0.957	> 10
CTV-1 (acute myeloid leukaemia, suspension)	0.964	> 10
D-283MED (medulloblastoma, adherent)	0.959	> 10
D-502MG (glioma, adherent)	0.847	> 10
DB (B-cell lymphoma, suspension)	0.901	> 10
DEL (lymphoid neoplasm, suspension)	0.901	8.05
DJM-1 (skin, adherent)	0.899	> 10
DMS-79 (small cell lung carcinoma, suspension)	0.917	> 10
DSH1 (bladder, adherent)	0.988	> 10
EB2 (Burkitt lymphoma, suspension)	0.988	> 10
EB-3 (Burkitt lymphoma, suspension)	0.971	> 10
EJM (lymphoid neoplasm, semi-adherent)	0.989	> 10
EM-2 (chronic myeloid leukaemia, suspension)	0.963	> 10
EW-3 (Ewing sarcoma, adherent)	0.717	2.85
EW-13 (Ewing sarcoma, suspension)	0.879	> 10
EW-18 (Ewing sarcoma, suspension)	0.965	> 10
GDM-1 (acute myeloid leukaemia, suspension)	0.974	> 10
HAL-01 (lymphoblastic leukaemia, suspension)	0.962	> 10
HC-1 (hairy cell leukaemia, suspension)	0.937	> 10

The cell lines below were run with O=C1NC(=O)c2c1c(-c1ccccc1Cl)cc1[nH]c3ccc(O)cc3c21 [Wee1 inhibitor 681640] in the same assay as above. Conditions: top dose 2 µM; top dose inferred.
Experimental: as §1

Cell Line	AUC	IC50 [µM]
CPC-N (small cell lung carcinoma, suspension)	0.888	> 2
CTB-1 (B-cell lymphoma, suspension)	0.871	> 2
CTV-1 (acute myeloid leukaemia, suspension)	0.946	> 2
D-283MED (medulloblastoma, adherent)	0.845	1.26
D-502MG (glioma, adherent)	0.917	> 2
DB (B-cell lymphoma, suspension)	0.769	0.851
DEL (lymphoid neoplasm, suspension)	0.994	> 2
DJM-1 (skin, adherent)	0.934	> 2
DMS-79 (small cell lung carcinoma, suspension)	0.97	> 2
DSH1 (bladder, adherent)	0.96	> 2
DU-4475 (breast, suspension)	0.967	> 2
EB2 (Burkitt lymphoma, suspension)	0.99	> 2
EB-3 (Burkitt lymphoma, suspension)	0.982	> 2
EJM (lymphoid neoplasm, semi-adherent)	0.98	> 2
EM-2 (chronic myeloid leukaemia, suspension)	0.941	> 2
EW-3 (Ewing sarcoma, adherent)	0.943	> 2
EW-13 (Ewing sarcoma, suspension)	0.982	> 2
EW-18 (Ewing sarcoma, suspension)	0.937	> 2
GCIY (stomach, adherent)	0.984	> 2
GDM-1 (acute myeloid leukaemia, suspension)	0.985	> 2
HAL-01 (lymphoblastic leukaemia, suspension)	0.88	1.66
HC-1 (hairy cell leukaemia, suspension)	0.972	> 2
